Here are results for six molecules from the supplement of paper PMC11741623.

The labels stand for the following.
B1: SBDS, Q9Y3A5 (protein)
chain: MSIFTPTNQIRLTNVAVVRMKRAGKRFEIACYKNKVVGWRSGVEKDLDEVLQTHSVFVNVSKGQVAKKEDLISAFGTDDQTEICKQILTKGEVQVSDKERHTQLEQMFRDIATIVADKCVNPETKRPYTVILIERAMKDIHYSVKTNKSTKQQALEVIKQLKEKMKIERAHMRLRFILPVNEGKKLKEKLKPLIKVIESEDYGQQLEIVCLIDPGCFREIDELIKKETKGKGSLEVLNLKDVEEGDEKFE
B2: MAG, P20916 (protein)
chain: MIFLTALPLFWIMISASRGGHWGAWMPSSISAFEGTCVSIPCRFDFPDELRPAVVHGVWYFNSPYPKNYPPVVFKSRTQVVHESFQGRSRLLGDLGLRNCTLLLSNVSPELGGKYYFRGDLGGYNQYTFSEHSVLDIVNTPNIVVPPEVVAGTEVEVSCMVPDNCPELRPELSWLGHEGLGEPAVLGRLREDEGTWVQVSLLHFVPTREANGHRLGCQASFPNTTLQFEGYASMDVKYPPVIVEMNSSVEAIEGSHVSLLCGADSNPPPLLTWMRDGTVLREAVAESLLLELEEVTPAEDGVYACLAENAYGQDNRTVGLSVMYAPWKPTVNGTMVAVEGETVSILCSTQSNPDPILTIFKEKQILSTVIYESELQLELPAVSPEDDGEYWCVAENQYGQRATAFNLSVEFAPVLLLESHCAAARDTVQCLCVVKSNPEPSVAFELPSRNVTVNESEREFVYSERSGLVLTSILTLRGQAQAPPRVICTARNLYGAKSLELPFQGAHRLMWAKIGPVGAVVAFAILIAIVCYITQTRRKKNVTESPSFSAGDNPPVLFSSDFRISGAPEKYESERRLGSERRLLGLRGEPPELDLSYSHSDLGKRPTKDSYTLTEELAEYAEIRVK
B3: C11orf36, Q2M3A8 (protein)
chain: MDLASEITSATQTSSLCSSGRGHAGYPAPGIVAHGFETHGTARVAQGHLLPPCLLPPPQMPVLAALRDLSRRGSTSSSRSPSRPVSTSASKPCLPASCLGETWSISINLVGSSGHLQSPGAQRDAQRETGCLGPSWLPHHQGRDEELSLSHSAQGEEF
B4: AIF1, P55008 (protein)
chain: MSQTRDLQGGKAFGLLKAQQEERLDEINKQFLDDPKYSSDEDLPSKLEGFKEKYMEFDLNGNGDIDIMSLKRMLEKLGVPKTHLELKKLIGEVSSGSGETFSYPDFLRMMLGKRSAILKMILMYEEKAREKEKPTGPPAKKAISELP
B5: ZBTB48, P10074 (protein)
chain: MDGSFVQHSVRVLQELNKQREKGQYCDATLDVGGLVFKAHWSVLACCSHFFQSLYGDGSGGSVVLPAGFAEIFGLLLDFFYTGHLALTSGNRDQVLLAARELRVPEAVELCQSFKPKTSVGQAAGGQSGLGPPASQNVNSHVKEPAGLEEEEVSRTLGLVPRDQEPRGSHSPQRPQLHSPAQSEGPSSLCGKLKQALKPCPLEDKKPEDCKVPPRPLEAEGAQLQGGSNEWEVVVQVEDDGDGDYMSEPEAVLTRRKSNVIRKPCAAEPALSAGSLAAEPAENRKGTAVPVECPTCHKKFLSKYYLKVHNRKHTGEKPFECPKCGKCYFRKENLLEHEARNCMNRSEQVFTCSVCQETFRRRMELRVHMVSHTGEMPYKCSSCSQQFMQKKDLQSHMIKLHGAPKPHACPTCAKCFLSRTELQLHEAFKHRGEKLFVCEECGHRASSRNGLQMHIKAKHRNERPHVCEFCSHAFTQKANLNMHLRTHTGEKPFQCHLCGKTFRTQASLDKHNRTHTGERPFSCEFCEQRFTEKGPLLRHVASRHQEGRPHFCQICGKTFKAVEQLRVHVRRHKGVRKFECTECGYKFTRQAHLRRHMEIHDRVENYNPRQRKLRNLIIEDEKMVVVALQPPAELEVGSAEVIVESLAQGGLASQLPGQRLCAEESFTGPGVLEPSLIITAAVPEDCDT
B6: PATE1, Q8WXA2 (protein)
chain: MDKSLLLELPILLCCFRALSGSLSMRNDAVNEIVAVKNNFPVIEIVQCRMCHLQFPGEKCSRGRGICTATTEEACMVGRMFKRDGNPWLTFMGCLKNCADVKGIRWSVYLVNFRCCRSHDLCNEDL

The list shows a part of the results. Interaction screen of human proteins with wild-type SARS-CoV-2 proteins by split-DHFR complementation in yeast, 1 µg/mL methotrexate. Value = fitness of the pair (three or more lineages) minus that of the viral protein without a human partner, on a scale set by negative (0) and fused positive (1) controls, mean of up to three cultures; higher = more likely to interact. Active = false discovery rate below 0.05 (one-sided t-test) in at least one culture. Nearly all pairs are not hits, and differences among them are mostly noise (correlation between cultures about 0.3); most hits were seen in one culture only. Human sequences are the Swiss-Prot entries looked up by gene name; the clone may be another isoform. NSP2 values were corrected by the authors for a growth advantage. Listed are human proteins with a hit and a random twelfth of the others.

The first experiment concerns the target SARS-CoV-2 NSP12. The experiment can be described thus: yeast fitness gain over the viral ORF with no human partner (scaled fitness); higher = more likely to interact. The method, then: (§1)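 Split mouse DHFR complementation in pooled diploid yeast: human ORFeome clones carry one fragment and viral ORFs the other; barcoded lineages compete in 1 µg/mL methotrexate and fitness is read by barcode sequencing in up to three cultures.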
With B1, the yeast fitness gain is inactive: -0.257.

Regarding B2, the yeast fitness gain is inactive: -0.0918.

B3: the yeast fitness gain is inactive: -0.136.

As for B4, the yeast fitness gain is inactive: -0.227.

As for B5, the yeast fitness gain was inactive: -0.153.

As to B6, the yeast fitness gain is inactive: -0.198.

A further experiment has as its target SARS-CoV-2 ORF10. Described as above. The method, then:
as §1
On to B1, for which the yeast fitness gain is inactive: 0.0836.

Take B2: the yeast fitness gain is inactive: -0.0381.

Regarding B3, the yeast fitness gain was inactive: 0.0762.

For B4, the yeast fitness gain is inactive: -0.111.

The target in another experiment is SARS-CoV-2 ORF3B. Described as above. The method, then:
as §1
For the molecule B1, the yeast fitness gain is inactive: -0.0245.

On to B4, for which the yeast fitness gain was inactive: 0.0763.

B5: the yeast fitness gain is inactive: -0.118.

With B6, the yeast fitness gain is inactive: 0.0635.

The target in another experiment is SARS-CoV-2 ORF6. The experiment is described as above. The method, then:
as §1
Consider B1, for which the yeast fitness gain is inactive: 0.00843.

On to B3, for which the yeast fitness gain was inactive: -0.025.

B4: the yeast fitness gain is inactive: -0.00304.

Consider B6, for which the yeast fitness gain is inactive: -0.082.

The target in a further experiment is SARS-CoV-2 NSP13. The experiment is described as above. The method, then:
as §1
In the case of B2, the yeast fitness gain was inactive: 0.106.

Regarding B4, the yeast fitness gain was inactive: -0.24.

B5: the yeast fitness gain was inactive: 0.00711.

In the case of B6, the yeast fitness gain was inactive: -0.0304.

Another experiment deals with SARS-CoV-2 NSP2. Described as above. The method, then: as §1
As to B2, the yeast fitness gain was inactive: -0.2.

Regarding B3, the yeast fitness gain is inactive: -0.566.

Regarding B4, the yeast fitness gain was inactive: 0.1.

On to B5, for which the yeast fitness gain was inactive: -0.21.

Regarding B6, the yeast fitness gain is inactive: -0.0508.

The target in a further experiment is SARS-CoV-2 ORF9B. The description is as above. The method, then:
as §1
Regarding B2, the yeast fitness gain is inactive: -0.0043.

On to B3, for which the yeast fitness gain was inactive: -0.0709.

In the case of B5, the yeast fitness gain was inactive: -0.0437.

In the case of B6, the yeast fitness gain is inactive: -0.0666.

For a further experiment, the target named is SARS-CoV-2 NSP5. The description is as above. The method, then:
as §1
For the molecule B3, the yeast fitness gain is inactive: -0.105.

As to B5, the yeast fitness gain is inactive: -0.359.

For a further experiment, the target named is SARS-CoV-2 ORF7A. The description is as above. The method, then:
as §1
Regarding B3, the yeast fitness gain was inactive: 0.0182.

In the next experiment the target is SARS-CoV-2 ORF8. The description is as above. The method, then:
as §1
As to B4, the yeast fitness gain is inactive: -0.081.

Regarding B6, the yeast fitness gain is inactive: -0.152.

For a further experiment, the target named is SARS-CoV-2 NSP6. The description is as above. The method, then:
as §1
Turning to B6, the yeast fitness gain was inactive: 0.145.

Another experiment concerns the target SARS-CoV-2 NSP8. The experiment is described as above. The method, then:
as §1
For the molecule B6, the yeast fitness gain was inactive: 0.149.

A further experiment deals with SARS-CoV-2 ORF7B. Described as above. The method, then: as §1
With B6, the yeast fitness gain was inactive: -0.124.

A further experiment deals with SARS-CoV-2 S. The experiment is described as above. The method, then:
as §1
Turning to B6, the yeast fitness gain is inactive: 0.026.
